We go through 41 compounds from ChEMBL document CHEMBL4888484, “Replenishing the malaria drug discovery pipeline: Screening and hit evaluation of the MMV Hit Generation Library 1 (HGL1) against asexual blood stage Plasmodium falciparum ,using a nano luciferase reporter read-out” (2022).

About 540 (0.36%) of roughly 150,000 compounds showed an effect of 50% or more. The list shows a part of the results.

The subject of this assay is Plasmodium falciparum. The experiment in a line: Primary screen in NF54 nanoGlo assay, in single point, at 2uM, 72h; a lower Z score goes with more inhibition. It is filed as functional, Erythrocyte. Particulars: timepoint 72 hour.
One may read the % Inhibition as the drop in the measured response relative to a control, in per cent. Consider `O=C([C@@H]1COCC(=O)N1Cc1ccccc1)N1CCOCC1`, for which the “% Inhibition” value is listed as -9% and the Z score is 1.04.

As to `Cc1cc2c(N[C@H]3C[C@H](c4nnc(CN(C)C)n4C)C3)ncnc2s1`, the “% Inhibition” value was -3% and the Z score came to 0.64.

In the case of `CN=C(NCCc1csc(C)n1)N1CCN(c2ccccn2)CC1`, the “% Inhibition” value is -4% and the Z score was determined as 0.49.

Take `CCCC[C@H](NC(=O)Nc1ccc(F)cc1C)C(N)=O`: the “% Inhibition” value was 9% and the Z score is on record as -0.86.

For `Cn1cc(NS(=O)(=O)N2CCCCCC2)c(C(N)=O)n1`, the “% Inhibition” value is given as 0% and the Z score is -0.03.

Regarding `COCCN(Cc1cncs1)C(=O)[C@H]1CCCN(C(C)=O)C1`, the “% Inhibition” value is given as -4% and the Z score came to 0.41.

In the case of `O=C1N[C@@](Cc2ccc(F)cc2)(C2CCN(Cc3ccc(F)c(F)c3)CC2)C(=O)N1C1CCCC1`, the “% Inhibition” value is listed as -1% and the Z score is given as 0.16.

Consider `CC(=O)Nc1c(-c2ccccn2)nsc1C(=O)NCCC1=CCCCC1`, for which the “% Inhibition” value is listed as -9% and the Z score was determined as 1.47.

For the compound `CCC(C(=O)NOCC(C)NC(=O)OC(C)(C)C)c1cccc(C(F)(F)F)c1` (configuration not stated), the “% Inhibition” value is recorded as 4% and the Z score is reported as -0.61.

For `Cc1ccc(F)c(NC(=O)[C@H]2CCCN(CC(C)C)C2)c1`, the “% Inhibition” value was determined as 3% and the Z score was -0.65.

`CS(=O)(=O)C1CC2CCC(C1)N2C(=O)c1cccc(Oc2ccc(F)cc2)c1` (configuration not stated): the “% Inhibition” value is reported as -15% and the Z score worked out at 1.86.

Turning to `COc1cccc(-n2c(=O)n(CC(C)C)c(=O)c3c2ncn3Cc2cccc(C)c2)c1`, the “% Inhibition” value came out at 5% and the Z score is reported as -0.64.

With `CC(C)(C)c1cc(NC(=O)c2cc(O)nc3ccccc23)n([C@H]2CCS(=O)(=O)C2)n1`, the “% Inhibition” value is recorded as -6% and the Z score amounted to 0.87.

Regarding `Cc1cccc(-n2ncc(C(=O)N3CCc4nnc(N)cc4C3)n2)c1`, the “% Inhibition” value was -6% and the Z score came out at 0.63.

Consider `CCCCOc1ccc(-c2cc3c(N4CCN(C(=O)c5ccco5)CC4)nccn3n2)cc1`, for which the “% Inhibition” value is recorded as -10% and the Z score was 1.99.

`Brc1cccc(-c2nnc3cc(-c4ccccc4)c4cc(Br)ccc4n23)c1`: the “% Inhibition” value was -4% and the Z score came out at 0.45.

For the compound `CCS(=O)(=O)NC[C@H](C)NCCc1nc(C2CC2)no1`, the “% Inhibition” value stood at 1% and the Z score is -0.25.

`CC(=O)c1cc(CN2CCOC[C@@H]2CC(=O)Nc2cccc(F)c2C)n(C)c1`: the “% Inhibition” value was -5% and the Z score is listed as 0.71.

`Cc1noc(C(C)C)c1NC(=O)[C@H]1CCn2c(cnc2C)C1`: the “% Inhibition” value is recorded as -2% and the Z score is listed as 0.3.

Turning to `CN1CC[C@H](NCc2ccccn2)C1=O`, the “% Inhibition” value is recorded as -3% and the Z score came out at 0.48.

For the compound `Cc1cc2c(cc1S(=O)(=O)N1CCC[C@H](C(=O)N(C)C3CCCCC3)C1)OCC(=O)N2`, the “% Inhibition” value is reported as -11% and the Z score stood at 1.31.

Take `CCCN(CC1CC1)C[C@H](O)COc1ccccc1C(C)C`: the “% Inhibition” value amounted to 5% and the Z score is on record as -0.86.

For the compound `CCc1nc(CC(=O)NCc2ccccc2)sc1C`, the “% Inhibition” value is recorded as -5% and the Z score came to 0.83.

On to `Cc1c(F)ccc(Cl)c1NC(=O)c1coc2c1C(=O)NCCC2`, for which the “% Inhibition” value was determined as 10% and the Z score was -1.29.

Turning to `Cc1nc(CNC(=O)c2cccc(-c3cn[nH]c3)c2)cs1`, the “% Inhibition” value was -15% and the Z score is listed as 2.35.

Take `COc1ccccc1-c1noc(CS(=O)(=O)C[C@H]2CCCO2)n1`: the “% Inhibition” value is -2% and the Z score is reported as 0.28.

As to `C[C@@H](c1nccs1)N1CCN(C(=O)c2cc3ccccc3c(=O)[nH]2)CC1`, the “% Inhibition” value is listed as -4% and the Z score was found to be 0.48.

Consider `O=C(NCc1cccnc1)c1cc2n(n1)CCN(Cc1ccccc1)C2=O`, for which the “% Inhibition” value was found to be 1% and the Z score is -0.1.

Turning to `CC[C@@H](CC#N)OC(=O)c1cncc(F)c1`, the “% Inhibition” value is recorded as -9% and the Z score is 1.26.

In the case of `COc1ccc([C@@H]2Cn3cnc(-c4nc(-c5ccc(OC)cc5OC)no4)c3CO2)cc1`, the “% Inhibition” value is given as -4% and the Z score turned out to be 0.33.

Take `COc1ccc(S(=O)(=O)N2C3CCC2CC(OC)C3)cc1Cl` (configuration not stated): the “% Inhibition” value worked out at 3% and the Z score is -0.47.

`COC[C@H](NCC1(O)CCC(C)CC1)c1ccco1` (some centres not stated): the “% Inhibition” value is listed as -18% and the Z score turned out to be 1.8.

`Cc1cscc1NC(=O)NCc1cnn(CCF)c1`: the “% Inhibition” value is recorded as -5% and the Z score came out at 0.85.

Turning to `Cn1cc(S(=O)(=O)Nc2ccc(CC(=O)N3CCOCC3)cc2)cn1`, the “% Inhibition” value was -3% and the Z score was 0.35.

In the case of `CN1CCCC[C@@H]1CN1CCN(C(=O)C2(C)COC(C)(C)OC2)CC1`, the “% Inhibition” value is recorded as -2% and the Z score came out at 0.24.

In the case of `CCOCCC(=O)Nc1ccc(-c2ccccn2)cn1`, the “% Inhibition” value is recorded as -17% and the Z score was found to be 1.39.

On to `Nc1nc2c(s1)[C@@H](c1cccc(OCc3ccc(F)cc3)c1)CC(=O)N2`, for which the “% Inhibition” value was -10% and the Z score is recorded as 0.97.

`CCOc1ccc(NC(=O)c2csc3c2CCCC3)cc1S(=O)(=O)N1CCCCC1`: the “% Inhibition” value is -10% and the Z score is 1.31.

In the case of `NC(=O)CC1CCN(S(=O)(=O)CC2CCC(C3CC3)O2)CC1` (configuration not stated), the “% Inhibition” value turned out to be 0% and the Z score is -0.03.

On to `CC(C)N1CCC2(CC1)N=C(c1ccc3c(c1)OCO3)C[C@@H](c1cc(Cl)ccc1O)N2`, for which the “% Inhibition” value amounted to 37% and the Z score is -7.51.

For `CN(C)c1ccc(C(=O)N[C@@]2(C)CCS(=O)(=O)C2)cc1`, the “% Inhibition” value is reported as 33% and the Z score is given as -4.2.
